# Laboratory results from PubChem BioAssay AID1745845 (National Center for Advancing Translational Sciences (NCATS), 2022).
# Where “and” joins values, the source holds several entries; their conditions need not be identical. Equal values may be shown once. Hit rate of the full screen: of about 360,000 compounds, about 2,600 (0.72%) were called active. Inconclusive means that the source gave no clear call. Such entries were picked first, then a sample of the others. Calls come from the whole dose curve; as a rule, active = well fitted inhibition curve with a large enough effect; inconclusive = small, poorly fitted or top-dose-only effect; inactive = no such curve, though single readings can be large or run the other way. Potencies beside an inconclusive call are fits to weak or partial responses and may not hold up. More than one record can exist for a structure, and the calls need not agree.
# Assay: Primary qHTS for Inhibitors of ATXN expression; note: nearly all actives have a fitted effect of over 55% in size
# Settings: HEK-293 ATXN2-luciferase reporter, luminescence, 24 h; activity change, negative = inhibition: at 57 µM (top of the series)
# Procedure, shortened: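 qHTS (up to 57 uM final) was run with 24 h compound exposure of reporter cells at 37 °C. Each well was multiplexed: SteadyGlo luminescence measured ATXN2-luciferase expression after a fluorogenic Gly-Phe-AFC viability readout (25 uM final).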
# % is set by controls: 0 for no effect and ±100 for the full control effect; potency is the fitted concentration of half-maximal effect; tags give direction and shape of the fitted curve.
Compound,"activity change, negative = inhibition",Potency
CC(=O)Nc1ccc(N=Nc2ccc(O)cc2)cc1,inactive: 25.6%,–
Cc1nc2c(C(=O)NCCC(C)C)c[nH]n2c(=O)c1Cc1ccccc1F,–,"inconclusive: 31.6 µM [inhibitor, single point]"
CC(Cc1ccc(O)c(O)c1)(NN)C(=O)O (configuration not stated),–,"inconclusive: 43.2 µM [inhibitor, single point]"
CSc1nn(CC(=O)Nc2ccccc2F)c(N)c1S(=O)(=O)c1ccccc1,inactive: 2.87%,–
Cc1cc(N2CCN(C)CC2)ccc1NC(=O)c1ccc(-c2ccc(Cl)cc2)o1,–,"inconclusive: 35.5 µM [inhibitor, single point]"
Cc1ccn2c(NC3CCCCC3)c(-c3ccc(SC4CCCCC4)cc3)nc2c1,inactive: 19.9%,–
O=C(CCl)N(c1ccc(Cl)cc1)c1c[nH]c2ccccc12,–,"inconclusive: 35.5 µM [inhibitor, single point]"
O=C(Nc1cccc(S(=O)(=O)NCc2ccco2)c1)c1cc(-c2ccc(F)cc2)nc2ccccc12,–,"inconclusive: 39.8 µM [inhibitor, single point]"
CCOC(=O)/C=C/C(=O)Nc1cccc([N+](=O)[O-])c1,–,"inconclusive: 39.8 µM [inhibitor, single point]"
CN(Cc1cnc2nc(N)nc(N)c2n1)c1ccc(C(=O)N[C@@H](CCC(=O)O)C(=O)O)cc1,–,"active: 31.6 µM and inconclusive: 432 nM [inhibitor, full curve] and inconclusive: 282 nM [inhibitor, full curve]"
OC[C@@H]1CN(Cc2cccc(C(F)(F)F)c2)C[C@H](n2cnc3c(NCc4ccc(F)cc4)ncnc32)O1,–,"inconclusive: 25.1 µM [inhibitor, single point]"
Cn1nc(-c2ccccn2)nc2c(=O)n(C)c(=O)nc1-2,–,"inconclusive: 12.6 µM [inhibitor, partial curve, poor fit]"
O=C(Nc1cccnc1)c1ccccc1Oc1ccccc1,inactive: 2.07%,–
O=C(COc1ccc(Cl)cc1)N1CCN(Cc2ccc3c(c2)OCO3)CC1,–,"inconclusive: 28.2 µM [inhibitor, single point]"
CCOC(=O)N1CCN(S(=O)(=O)c2ccc(C(=O)NNc3nc4cc(C)cc(C)c4s3)cc2)CC1,–,"inconclusive: 37.7 µM [inhibitor, single point]"
CC(=O)N1CCc2c(sc3nc(SCC(C)C)n(-c4ccc(C)c(Cl)c4)c(=O)c23)C1,–,"inconclusive: 39.8 µM [inhibitor, single point]"
CCOc1ccc2nc3cc(N)ccc3c(N)c2c1,–,active: 12.6 µM
